# From the RNAGym collection of RNA variant scans (doi:10.1073/pnas.2313332121)
# This sample is rich in variants without activity.
# B1: TPR 5TU (parent)
# chain: GGAUCUUCUCGAUCUAACAAAAAAGACAAAUCUGCCACAAAGCUUGAGAGCAUCUUCGGAUGCAGAGGCGGCAGCCUUCGGUGGCGCGAUAGCGCCAACGUUCUCAACUAUGACACGCAAAACGCGUGCUCCGUUGAAUGGAGUUUAUCAUG
# Variants of: B1
# Assay: polymerase ribozyme fitness, log enrichment relative to wild type (log ratio); higher = more active; in vitro selection for triplet polymerase activity
# Method in brief: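 Mutant libraries of both subunits of a heterodimeric triplet polymerase ribozyme were PCR-built, transcribed, and selected once in triplicate, with frozen incubation at −7 °C and capture of gel-excised extended constructs on streptavidin beads before RT-PCR. Illumina sequencing of input and output libraries was filtered to genotypes with ≥10 input reads and ≥1 read per output. Fitness is the logarithm of genotype enrichment over wild-type enrichment, using inverse-variance-weighted replicate averages. The logarithm is base 2.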
row,Variant,polymerase ribozyme fitness (log ratio)
1,GGAUCUUCUCGAUCUCACAAAAAGGACAAAUCUGGCACAAAGCUUGAGAGCAUCUUCGGAUGCGGAGGCGGCAGCCUUCCGUGGCGCGAUAGCGUCAACGUUCUCAACUAUGACACGCAAAACGCGUGCUCCGUUGAAUGGAGUUUAUCAUG [A16C A24G C35G A64G G80C C95U],≤ -4.2
2,GGAUCUUCUCGAUCUCACAAAAAGGACAAAUCUGCCACAAAGCUUGAGAGCAUCUUCGCAUGCAGAGGCGGCAGCCCUCGGUGGCUCGAUAGCGCCAAAGUUCUCAACUAUGACACGCAAAACGCGUGCUCCGUUGAAUGGAGUUUAUCAUC [A16C A24G G59C U77C G86U C99A G152C],≤ -4.2
3,GGAUCUUCUCGAUCUCACAAAAAUGACAAAUCUGCCACAAAGCUUCAGAGCAUCUUCGGAUGCAGAGGCGGCAGCCUUCGGUGGCGCGAUAGCGCCAACGUUCUGAAGUAUGACACGCAAAACGCGUGCUCCGUUGAAUGGAGUUUAUCAUG [A16C A24U G46C C105G C108G],≤ -4.2
4,GGAUCUUCUCGAUCUCACAAAAAAGGCAAAUCUGACACAAAGCUUGAGAGCGUCUUCGGAUGCAGAGGCGGCAGCCUUCGGUGGCGUGAUAGCGCCAACGUUCUCAACUAUGACACGCAAAACGCGUGCUCCGUUGAAUGGAGUUUAUCAUG [A16C A26G C35A A52G C87U],-3.98
5,GGAUCUUCUCGAUCUCACAAAAAAGGCAAAUCUGCCACAAAGCUUGAGAGCAUCUUCCGAUGCAGAGGCGGCAGCCUUCGGUGGCGCGAUACCGCCAACGUUCUCAACUAUGACACGCAAAACGCGUGCUCCGUUGAAUGGAGUUUAUCAUG [A16C A26G G58C G92C],≤ -4.2
6,GGAUCUUCUCGAUCUCACAAAAAAGUCAAAUCUGCCACAAAUCUUGCGAGCAUCAUCGGAUGCAGAGGCGGCAGCCUUCGGUGGCGCGAGAGCGCCAGCGUUCUCAACUAUGACACGCAAAACGCGUGCUCCGUUGAAUGGAGUUUAUCAUG [A16C A26U G42U A47C U55A U90G A98G],≤ -4.2
7,GGAUCUUCUCGAUCUCACAAAAAAGUCAAAUCUGCCACAAAGCUUGAGAGCAUCUACGGAUGCAGCGGCGGCAGACUUCGGUGGUGCGAUUGCGCCAACGUUCUCAACUAAGACACGCAAAACGCGUGCUCCGUUGAUUGGAGUUUAUCAUG [A16C A26U U56A A66C C75A C85U A91U U111A A138U],≤ -4.2
8,GGAUCUUCUCGAUCUCACAAAAAAGACACUUCUGCCACAAAGCGUGAGAGCAUCUUAGGAUGCAGAGGCGGCAGGCUUCGGUGGCGCGAUAGCGCCAACGUUCUCAACUAUGACACGCAAAACGCGUGCUCCGUUGAAUGGAGUUUAUCAUG [A16C A29C A30U U44G C57A C75G],≤ -4.2
9,GGAUCUUCUCGAUCUCACAAAAAAGACAGAUCUGCCACAAAGCUUGAGAGCAUCUUCGGAUGCAGAGGCGGCAGCCUUCGGUGGCGCGAUAGCGCCAACGUUCUCAACUAUGACACGCAAAGCGCGUGCUCCGUUGAAUGUAGUUUAUCAUG [A16C A29G A122G G141U],≤ -4.2
10,GGAUCUUCUCGAUCUCACAAAAAAGACAGAUCGGCCACAAAGCUUGAGAGCAUCUUCGGCUGCAGAGGCGGCAGCCUUCGGUGGGGCGAUAGCGCCAACGUUCUCAACUAUGACACGCAAAACGCGUGCUCCGUUGAAUUGAGUUUAUGAUG [A16C A29G U33G A60C C85G G140U C149G],≤ -4.2
11,GGAUCUUCUCGAUCUCACAAAAAAGACAGAUCUGCCACAAAGCUAGAGAGCAUCUUCGGAUGCAGAGGCGGCAGCCUUCGGUGGCGCGAUAGCGCGAACGUUCUUAACUAUGACAGGCUAAACGCGUGCUCUGUUGAAUGGAGUUUAUCAUG [A16C A29G U45A C96G C105U C116G A119U C132U],≤ -4.2
12,GGAUCUUCUCGAUCUCACAAAAAAGACAAUUCUGCCACAAAGCUUGAGAGCAUCUUCGGAUGCAGAGGCGGCAGCCUUCGGUGGCGCGAUAGCGACAACGUUCCUAACUAUGACACGCAAAACGAGUGCUCCGUUGAAUGGAGUUUAUCAUG [A16C A30U C95A U104C C105U C125A],≤ -4.2
13,GGAUCUUCUCGAUCUCACAAAAAAGACAAUUCUGCCACAAAGCUUGAGAGCAUCUUCGGAUGCAGAGGCGGCAGCCUUCGGUGGCGCGAUAGCGGCAACGUUCUCAACUAUGACACGCAAAACGCGUGCUCCGUUGAAUGGAGUUUGUAAUG [A16C A30U C95G A147G C149A],≤ -4.2
14,GGAUCUUCUCGAUCUCACAAAAAAGACAAAUCUGCCGCAAAGCUUGAGAGCAUCUUCGGAUGCAGAGGCGGCAGCCUUCGGUGGCGCGAUAGGGCCAACGUUCUCAACUAUGACACGCAAAACGCGUGCUCCGUUGAAUGGAGUUUAUCAUG [A16C A37G C93G],≤ -4.2
15,GGAUCUUCUCGAUCUCACAAAAAAGACAAAUCUGCCACACAGCAUGAGAACGUCUGCGGAUGCAGAGGCGGCAGCCUUCGGUGGCGCGAUAGCGCCAACGUUCUCAACUAUGACACGCAAAACGCGUGCUCCGUUGAAUGGAGUUUCUCAUG [A16C A40C U44A G50A A52G U56G A147C],≤ -4.2
16,GGAUCUUCUCGAUCUCACAAAAAAGACAAAUCUGCCACAAAGCUUGAGCGCAUCUUCGGAUGCAGAGGCGGCAGCCUUCGGUGGCGCGAUAGCGCCAACGUUCUCAACUAUGACACGCAAAACGCGUGCUCCGUUGAAUGGAGUUUAUCAUG [A16C A49C],≤ -4.2
17,GGAUCUUCUCGAUCUCACAAAAAAGACAAAUCUGCCACAAAGCUUGAGUGCAUCUUCGAAUGCAGAGGCGGCAGCAUUCGGUGGCGCGAUAGCGCCAACGUUCUCAACUAUGACACGCAAAACGCGUGCUCCGUUAAAUGGAGUUUAUCAUG [A16C A49U G59A C76A G136A],≤ -4.2
18,GGAUCUUCUCGAUCUCACAAAAAAGACAAAUCUGCCACAAAGCUUGAGAGCAUCUUCGGUUGCAGAGGUGGCAGCCUUCGGUGGCGCGAUAGCGCCAAGGUUCUCAACUAUGACACGCAAAACGCCAGCUCCGUUGAAUGGAGUUUAUCAUG [A16C A60U C69U C99G G126C U127A],≤ -4.2
19,GGAUCUUCUCGAUCUCACAAAAAAGACAAAUCUGCCACAAAGCUUGAGAGCAUCUUCGGAUGCAGAGGCGGCAGCCUUCGGUGGCGCGAUAGCGCCAACGUUCUCAACUGUGACACGCAAAACGCGUGCUCCGUUGAAUGGAGUUUAUCAUG [A16C A110G],-3.67
